In all, about 13,000 compounds were measured (“IFI”: median about 4, highest 2% from about 17 on). The list shows a part of the results.
Assay: GSK_TCMDC: Inhibition Frequency Index (IFI). The number of non-kinase HTS assays where a compound showed > 50 % inhibition, expressed as a percentage of the number of such assays in which the compound was tested (-0 is zero)
Type: functional

| Structure (SMILES) | IFI |
| --- | --- |
| CCC(CC(C)C(=O)O)=C(c1ccccc1)c1ccccc1 (configuration not stated) | -0% |
| OC(CNCc1ccccc1OCc1ccccc1)c1cccc(I)c1 (configuration not stated) | 8% |
| CC1CCN(Cc2c(O)ccc3c(CN4CCC(C)CC4)c(O)ccc23)CC1 | 6.98% |
| Cc1cccc2nc(-c3ccc(-c4ccc(NC(=O)NCc5ccccc5)cc4)s3)[nH]c12 | 4.04% |
| CC(C)COc1ccc(Cl)cc1Cc1nc(-c2nc3ccc(CN(C)C)cc3[nH]2)co1 | 10.2% |
| CN(C(=O)Nc1ccc(F)cc1)C1CCN(CCCCCNC(=O)/C=C/c2ccc(Cl)c(Cl)c2)CC1 | 4.41% |
| CN(C)c1ccc2nc(N)nc(N)c2c1Cl | 1.43% |
| COc1ccc2nccc([C@@H](O)CN3CCC(NC(=O)C(c4cc5ccccc5o4)N4CCN(c5ccccc5OC)CC4)CC3)c2c1 (some centres not stated) | 2.78% |
| CC(C)c1ccc(-c2nc3cc(Cl)cnc3[nH]2)cc1 | 8.33% |
| CCOc1ccc(C2CCN(CCN3CCC(NC(=O)c4ccc(-c5ccc(C(F)(F)F)cc5)cc4)CC3)CC2)c(OCC2CC2)c1 | 0.89% |
| Fc1cc(Cl)ccc1Nc1ccnc2cc(-c3ccc(CNCCN4CCOCC4)o3)ccc12 | 4.38% |
| Cc1cc2ccccc2c(CON2C(=N)N=C(N)NC2(C)C)c1C | 2.84% |
| O=C(Cc1ccc(Cl)cc1)Nc1cc(Cl)ccc1Cn1cnc(N2CCNCC2)cc1=O | 1.38% |
| Cc1cc(N[C@@H](CC(C)C)C(=O)NCc2cccs2)nc(NCCc2ccccc2)n1 | 6.82% |
| Cc1cccc2nc(-c3cccc(-c4cccc(C(=O)N5CCCCC5CN5CCC(O)C5)c4)c3)[nH]c12 (configuration not stated) | 5.31% |
| CC(=O)Nc1nc(C(=O)Nc2cccc(-c3cccc(-c4nc5cccc(C)c5[nH]4)c3)c2)cs1 | 6.09% |
| COc1ccc2ncc(F)c(CCN3C4CCC3CC(NCc3cc5c(cn3)OCS5)C4)c2n1 (configuration not stated) | 3.73% |
| CC(=O)OCCN1C(=O)c2ccc3c4c(ccc(c24)C1=O)C(=O)N(CCOC(C)=O)C3=O | 1.41% |
| COc1ccccc1C1CCN(C2CCC(NC(=O)/C=C/c3ccc(C(F)(F)F)cc3)CC2)CC1 (configuration not stated) | 6.67% |
| Cc1cc(NC(=O)NCCN2CCC(NC(=O)c3ccc(F)cc3)CC2)c2ccccc2n1 | 0.85% |
| CC(=O)Oc1ccc(C(=O)Oc2ccccc2C#CC#N)cc1OC(C)=O | 7.09% |
| O=S(=O)(NC1CCCCN(Cc2ccccc2O)C1)c1ccc(C(F)(F)F)cc1 (configuration not stated) | 0.7% |
| CCN(CC)C(=O)C1CCN(C(C(=O)N2CCN(CC(=O)N3CCCC3)CC2)c2cc3ccccc3o2)CC1 (configuration not stated) | 0.75% |

| Structure (SMILES) | IFI |
| --- | --- |
| Oc1ccc(CCNc2nc(NCc3ccccc3-c3ccccc3)nc(N3CCCNCC3)n2)cc1 | 18.2% |
| Cc1ccnc(NC(c2cccc(Cl)c2Cl)c2ccc3cccnc3c2O)c1 (configuration not stated) | 4.62% |
| CN(C)CCCNCc1ccc(-c2ccc(CNCCc3ccccc3)cc2)cc1 | 5.48% |
| O=C1CCCN1CCCNCc1ccc(-c2ccc(-c3nc4cc(F)ccc4[nH]3)cc2)cc1 | 6.8% |
| Cn1cc(C2CCN(CCCCCNC(=O)/C=C/c3ccc(Cl)c(Cl)c3)CC2)c2cc(O)ccc21 | 3.68% |
| Cc1ccc2[nH]c3c(c2c1)CC(C(=O)NCCC(C)C)NC31CCN(Cc2ccccc2)CC1 (configuration not stated) | 4.23% |
| CN(C)CC(O)COc1ccc(Nc2ncc([N+](=O)[O-])c(Nc3ccccc3O)n2)cc1 (configuration not stated) | 6.21% |
| OC(CNc1ccnc(Nc2cccc(Cl)c2)n1)c1cccc(C(F)(F)F)c1 (configuration not stated) | 13.3% |
| O=C(NC1CCCCC1)N(CCCn1ccnc1)Cc1csc(-c2ccc(CNCc3ccccc3)cc2)n1 | 4.05% |
| CCN(CC)CCOc1ccc(NC(=O)c2oc3ccccc3c2C=Cc2ccccc2)cc1 | 18.5% |
| CN1CCN(C(C(=O)NCc2cc(Cl)cc(Cl)c2)c2ccccc2-c2ccsc2)CC1 (configuration not stated) | 4.96% |
| COc1ccc(C2CCN(CCCCNC(=O)c3ccc(NC(=O)c4ccc(Cl)cc4)cc3)CC2)c(OC)c1 | 6.14% |
| O=S(=O)(c1ccc(OCc2ccc(Cl)cc2)cc1)c1cc2c(c(-c3ccc(F)cc3)c1)CCN(CC1CC1)CC2 | 3.6% |
| COc1ccccc1/C=C/C(=O)NCCC1CCN(CCCCCNC(=O)/C=C/c2ccc(Cl)c(Cl)c2)CC1 | 6.99% |
| Cc1cc(=NN=Cc2ccc(Cl)cc2)c2cccc(C)c2[nH]1 | 1.45% |
| O=C(N[C@@H](Cc1ccccc1)[C@H](O)CNC1CCCCC1)c1cc(C2CCCC2)cc(N2CCCC2=O)c1 | 3.05% |
| CCN(CC)CCOc1ccc(C(O)(C#CC(O)(c2ccc(Br)cc2)c2ccc(OCCN(CC)CC)cc2)c2ccc(Br)cc2)cc1 (configuration not stated) | 16.2% |
| Cc1nc(-c2nc(N3CCC(C(N)=O)CC3)ncc2-c2ccsc2)sc1C | 3.41% |
| COc1ccc(CCCc2nc(N)nc(N)c2-c2ccc(Cl)cc2)cc1 | 2.99% |
| COc1c(C2CCN(CCCCNC(=O)c3ccc(-c4ccc(C#N)cc4)cc3)CC2)ccc2c1C(C)(C)CCC2(C)C | 11.4% |
| NS(=O)(=O)c1cccc(-c2ccc3c(O)ncnc3c2)c1 | 0% |
| O=S(=O)(c1ccccc1)n1ccc2cc(Nc3ncnc4cc(C#C[C@H]5CCCN5)sc34)ccc21 | 8.57% |
| CCN(CC)/C(=N\C(=N)NCCCCCCNC(=N)/N=C(\Nc1ccc(Cl)cc1)N(CC)CC)Nc1ccc(Cl)cc1 | 2.24% |

| Structure (SMILES) | IFI |
| --- | --- |
| Cc1ccc(C(=O)Nc2ccc(Nc3ccnc4cc(-c5ccccn5)ccc34)cc2O)cc1 | 10.3% |
| COc1ccc(C(c2ccc(N(C)C)cc2)c2ccc(N(C)C)cc2)cc1 | 18.2% |
| NC1=NC(Cc2ccccc2)N(c2ccc(Cl)cc2)C(N)=N1 (configuration not stated) | 0% |
| CCc1c(CCNCCCCCCNCCc2ccccc2)ccc(OC)c1OC | 3.52% |
| O=C(O)c1cccnc1Sc1ccc(Cl)cc1 | -0% |
| Cc1cccc(C(=O)Nc2ccnc(N(C)CCCN(C)Cc3cccc(C#N)c3)c2)c1 | 0% |
| Cc1cc(NC2CCN(CC3CCCCC3)C2)nc(Nc2ccc(Cl)cc2)n1 (configuration not stated) | 7.69% |
| Cc1ccc(NC(C)C(=O)Nc2ccc(C#N)cc2)cc1S(=O)(=O)N1CCCCC1 (configuration not stated) | 1.37% |
| c1ccc(CCNc2ccnc(Nc3ccc4cn[nH]c4c3)n2)cc1 | 3.45% |
| OC(CNC1CCCCC1)Cn1c2ccc(I)cc2c2cc(I)ccc21 (configuration not stated) | 4.9% |
| COc1ccc2[nH]c(-c3ccccc3)cc(=NN=Cc3ccncc3)c2c1 | 2.11% |
| COc1cccc(CCc2nc3c(N4CCC(Cc5ccccc5)CC4)cccc3n2CC2CNCCO2)c1 (configuration not stated) | 6.08% |
| COc1ccc(NC(=O)Nc2ccc(-c3ccccc3)cc2)cc1Cn1cnc(N2CCCNCC2)cc1=O | 4.83% |
| CCOc1cc(Cc2cnc(N)nc2N)cc(OCC)c1OCCCCC(=O)OC | -0% |
| CN1CCN(CCCN(Cc2cccc(-c3ccc(CNC4CCCC4)cc3)c2)C(=O)/C=C/c2ccccc2)CC1 | 8.82% |
| Cc1ccc(CN2CCN(CC(O)COc3ccc4c(c3)CCC4)CC2)cc1 (configuration not stated) | 2.99% |
| COc1ccc2c(c1)CCCC2C(C)NCC(O)c1cccc(C(F)(F)F)c1 (configuration not stated) | 1.43% |
| Cc1nc2ccccc2n1C1CC2CCC(C1)N2CCC1(c2ccccc2)CCN(C(=O)Nc2ccc(C(F)(F)F)cc2)CC1 (configuration not stated) | 1.4% |
| Cc1cc(NS(=O)(=O)c2cccc(C(C)N3CCC(N4CCCC4)CC3)c2)ccc1C(C)C (configuration not stated) | 13.1% |
| CN(C)CC(=O)Nc1ccc(-c2ccc3ccnc(N)c3c2)cc1 | 7.95% |
| COc1ccc2ncc(F)c(CCN3C[C@H](CNCc4cc(C#N)c5c(c4)OCCO5)[C@H](O)C3)c2n1 | 3.85% |
| NC(=O)c1cccc(Nc2nccc(Nc3ccc(Oc4ccc5ccccc5c4)cc3)n2)c1 | 6.87% |
| Cc1csc(-c2nonc2NC(=O)COc2ccccc2C(C)C)n1 | -0% |

| Structure (SMILES) | IFI |
| --- | --- |
| Cc1ccc(CN2CCC(C(=O)Nc3ccc(-c4cc5ccccc5[nH]4)cc3)CC2)o1 | -0% |
| C=CCC1OC(=O)c2cc(OC)cc(OC)c21 (configuration not stated) | 33.6% |
| CCCCCCCn1c(=N)n(CC(O)c2ccc(Cl)c(Cl)c2)c2ccccc21 (configuration not stated) | 17.6% |
| N=C1SC(=Cc2cn[nH]c2-c2ccc(F)cc2)C(=O)N1c1nccs1 | 2.07% |
| O=C(Nc1cccc(CN2CCN(C(=O)c3ccccc3)CC2)c1)c1ccco1 | 1.52% |
| CC[C@H](C)CNC(=O)c1cccc(-c2ccc(CN3CCC(N4CCCC4)CC3)cc2)n1 | 9.09% |
| Cc1ccc(CN(Cc2ccc(C(=O)N(C)C)cc2)Cc2ccc3c(c2)OCCO3)cc1C | 2.11% |
| O=C(Cc1c[nH]cn1)Nc1cccc(-c2cccc(-c3nc4cc(C(F)(F)F)ccc4[nH]3)c2)c1 | 10.8% |
| O=S(=O)(Nc1ccc(CCN2CCCCC2CCN2CCCC2)cc1)c1ccc(-c2ccccc2)cc1 (configuration not stated) | 14.1% |
| CN(C)Cc1c(O)ccc2oc(Cc3ccccc3)cc12 | 5.49% |
| COc1ccc(N2C(N)=NC(N)=NC2(C)C)cc1 | 0.74% |
| N#Cc1cccc(C(=O)Nc2cccc(-c3ccc(CN4CCC(O)CC4)cc3)c2)c1 | 0.98% |
| O=C(Nc1ccc(-c2nc3ccccc3[nH]2)cc1)C1CCCN(CC2CC2)C1 (configuration not stated) | 2.38% |
| CC(=O)Nc1ccc(C(=O)NC2CCN(c3ccnc4cc(Cl)ccc34)CC2)cc1 | 0% |
| COc1ccc(C(=O)NC(Nc2ccc([N+](=O)[O-])cc2)C(Cl)(Cl)Cl)cc1 (configuration not stated) | 13.4% |
| CCOC(=O)c1ccc2[nH]c(-c3ccc(C(=O)NCc4ccc(C(C)(C)C)cc4)cc3)nc2c1 | 1.45% |
| Cc1ccc(C(=O)Nc2cccc(-c3ccc(N4CCN(C)CC4)nn3)c2)cc1[N+](=O)[O-] | 1.89% |
| O=C(NCCCCCN1CCC(c2c[nH]c3ccccc23)CC1)c1ccc(-c2ccccc2)nc1 | 4.44% |
| CC(C)(C)c1nn(-c2ccccc2)c2[nH]c(=O)c(CNC3CCCC3)cc12 | 0.78% |
| O=C(Nc1ccc(Cn2ncc(N3CCCNCC3)c(Cl)c2=O)cc1)Nc1ccc(C(F)(F)F)cc1 | 11.8% |
| COc1cc(Cc2cnc(N)nc2N)cc(OC)c1OCCCCC(=O)O | 1.5% |
| COc1cccc(Nc2nc(Nc3cccc(C#N)c3)cc(-c3ccncc3)n2)c1 | 0% |
| O=C(Nc1ccc(N2CCCCC2)c(Cl)c1)c1ccco1 | 0.87% |
